# Several values for one entry are separate records, joined by “and”; a condition that tells them apart may be missing. Equal entries are not always repeated. Screen size: about 390,000 compounds; about 17,000 (4.4%) were called active. The inconclusive results got no clear call from the source; some entries with a clear call stand among them for comparison. Calls follow the shape of the dose curve; as a rule, active = well fitted inhibition curve with a large enough effect; inconclusive = small, poorly fitted or top-dose-only effect; inactive = no such curve, though single readings can be large or run the other way. Potencies beside an inconclusive call are fits to weak or partial responses and may not hold up.
# Biological target: Lysine-specific demethylase 4A (Homo sapiens) (UniProt O75164)
# Assay: qHTS Assay for Inhibitors of JMJD2A-Tudor Domain; also: nearly all actives have a fitted effect of over 50% in size
# Settings: AlphaScreen JMJD2A-Tudor / H3K4me3 peptide binding; series mostly up to 114 µM
# Potency is read from the fitted curve at half-maximal effect; tags tell the direction and shape of the fitted curve.
# UniProt O75164, sequence (O75164 whole entry, looked up, the tested form may be a part): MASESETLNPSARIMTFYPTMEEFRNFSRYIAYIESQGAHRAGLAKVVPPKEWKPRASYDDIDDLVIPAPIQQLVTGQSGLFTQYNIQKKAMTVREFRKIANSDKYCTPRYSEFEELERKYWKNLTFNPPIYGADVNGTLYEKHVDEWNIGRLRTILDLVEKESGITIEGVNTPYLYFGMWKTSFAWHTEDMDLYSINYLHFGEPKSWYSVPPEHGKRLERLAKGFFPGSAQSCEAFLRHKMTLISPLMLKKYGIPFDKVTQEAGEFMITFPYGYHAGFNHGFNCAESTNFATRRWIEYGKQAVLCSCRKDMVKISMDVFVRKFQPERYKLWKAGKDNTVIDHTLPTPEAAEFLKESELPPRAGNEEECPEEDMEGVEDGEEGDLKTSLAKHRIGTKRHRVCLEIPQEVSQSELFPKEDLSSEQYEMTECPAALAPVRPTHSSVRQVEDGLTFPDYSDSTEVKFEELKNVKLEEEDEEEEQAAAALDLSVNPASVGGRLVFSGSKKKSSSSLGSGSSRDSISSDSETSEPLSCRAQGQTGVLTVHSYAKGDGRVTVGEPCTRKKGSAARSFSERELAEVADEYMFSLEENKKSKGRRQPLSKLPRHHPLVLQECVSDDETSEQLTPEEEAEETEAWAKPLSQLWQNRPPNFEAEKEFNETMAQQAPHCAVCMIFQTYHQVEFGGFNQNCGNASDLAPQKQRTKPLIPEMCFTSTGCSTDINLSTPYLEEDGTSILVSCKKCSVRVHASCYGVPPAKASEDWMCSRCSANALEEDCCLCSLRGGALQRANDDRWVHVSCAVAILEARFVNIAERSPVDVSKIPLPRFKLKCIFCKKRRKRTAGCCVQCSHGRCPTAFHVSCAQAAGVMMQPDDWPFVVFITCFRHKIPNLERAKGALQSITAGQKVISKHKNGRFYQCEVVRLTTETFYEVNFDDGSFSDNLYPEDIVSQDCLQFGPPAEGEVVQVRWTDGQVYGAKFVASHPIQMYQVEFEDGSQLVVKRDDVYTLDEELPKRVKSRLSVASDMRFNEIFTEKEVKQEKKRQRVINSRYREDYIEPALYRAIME
row,Structure (SMILES),Potency
1,COc1ccc(N=Nc2cc(OC)c(N)cc2OC)cc1,active: 44.7 µM
2,COC(=O)N1CC(c2ccccc2)CC1=O (stereo unspecified),inactive
3,COc1ccc(N=Cc2ccc(-c3ccccc3)o2)cc1,"inconclusive: 14.1 µM [inhibitor, full curve]"
4,CCCNC(=O)COC(=O)/C=C/c1cccc(F)c1,inactive
5,CCOc1cc(C2/C(=C(/O)c3ccc(S(=O)(=O)N4CCCCC4)cc3)C(=O)C(=O)N2CCOC)ccc1O (stereo unspecified),"inconclusive: 89.1 µM [inhibitor, partial curve, poor fit]"
6,NC(=O)c1ccc(NC(=O)CS(=O)(=O)c2cn(CC(=O)N3CCCC3)c3ccccc23)cc1,inactive
7,O=C(NCc1ccccc1Cl)c1cc2ccccc2o1,inactive
8,Cc1ccc(CNC(=O)c2cccnc2Cl)cc1,inactive
9,Cc1ccc(C(C(=O)Nc2ccc3c(c2)OCO3)N(C)C(=O)Cc2c[nH]c3ccccc23)cc1 (stereo unspecified),"inconclusive: 28.2 µM [inhibitor, full curve]"
10,Oc1ccccc1N=N/C(=N/Nc1ccccc1O)c1ccccc1,inactive
11,CC(C)C[C@@H]1NC(=O)N(CCCn2ccnc2)C1=O,inactive
12,CCN(CC)CCOc1nc(C)nc2c1oc1ccccc12,"inconclusive: 39.8 µM [inhibitor, single point]"
13,CC(C)CC(=O)Nc1nc(=S)ss1,"inconclusive: 79.4 µM [inhibitor, partial curve]"
14,O=C(C(=O)N1CCN(c2ccccc2Cl)CC1)c1c[nH]c2ccccc12,"inconclusive: 63.1 µM [inhibitor, partial curve, poor fit]"
15,Cn1c(SCCCC(=O)c2ccc(Br)cc2)nnc1-c1ccncc1,"inconclusive: 89.1 µM [inhibitor, single point]"
16,COc1cc(/C=C(\C#N)C(=O)Nc2ccc(C(=O)O)cc2)ccc1OC(=O)c1cccc(F)c1,"inconclusive: 56.2 µM [inhibitor, partial curve]"
17,COc1ccc(C(=O)COc2ccc3ccc(=O)oc3c2)cc1,"inconclusive: 50.1 µM [inhibitor, partial curve]"
18,O=C(O)COc1ccc2c(c1)O/C(=C\c1ccco1)C2=O,active: 20 µM
19,Cc1ccc(OCC(=O)N(C)CCc2ccccn2)cc1,active: 10 µM
20,COc1cc(Cl)c(C)cc1NC(=O)c1ccccc1NC(=O)CN1CCN(c2ccccn2)CC1,"inconclusive: 39.8 µM [inhibitor, full curve, poor fit]"
21,CCOc1ccc(NCc2cccn2-c2nnc(N3CCC(C(=O)NCCc4ccc(OC)c(OC)c4)CC3)s2)cc1,"inconclusive: 20 µM [inhibitor, full curve]"
22,CCCn1c(/C=C/c2ccco2)nc2ccccc21,inactive
23,CCc1nnc(SCC(=O)N2CCCc3ccccc32)nc1CC,"inconclusive: 5.01 µM [inhibitor, full curve]"
24,O=NNc1nc2ccccc2n1Cc1ccccc1,"inconclusive: 50.1 µM [inhibitor, partial curve]"

row,Structure (SMILES),Potency
1,CCNC(=S)N1CCN(Cc2ccc3c(c2)OCO3)CC1,inactive
2,CN1CCN(/C(=N\O)c2nonc2N)CC1,"inconclusive: 39.8 µM [inhibitor, single point]"
3,CCOc1ccc(NC(=S)N(CCc2c(C)[nH]c3ccccc23)Cc2cccnc2)cc1,"inconclusive: 22.4 µM [inhibitor, full curve]"
4,COC(=O)CS(=O)(=O)c1nc2ccccc2nc1N1CCCCC1,inactive
5,CC(C)CCn1c(SCC(=O)NC2CCS(=O)(=O)C2)nc2cc(Cl)ccc2c1=O (stereo unspecified),"inconclusive: 4.47 µM [inhibitor, full curve, poor fit]"
6,O=[N+]([O-])c1nn(-c2ccc3c(c2)OCCO3)n(O)c1=NC1CCN(Cc2ccccc2)CC1,"inconclusive: 79.4 µM [inhibitor, partial curve]"
7,NNc1cccc(C=Cc2ccccc2)cc1=O,"inconclusive: 14.1 µM [inhibitor, full curve]"
8,O=C(Nc1ccc(N2CCC(c3ccccc3)C2)c(C(=O)O)c1)c1ccc(Cl)cc1 (stereo unspecified),"inconclusive: 89.1 µM [inhibitor, single point]"
9,COC(=O)CCN(C(C)=O)c1ccc(N)cc1,active: 50.1 µM
10,COC(=O)c1ccc(NCc2c(O)ccc(O)c2Br)cc1Cl,active: 3.55 µM
11,CC(c1ccccc1)N1C(=O)/C(=C/c2ccncc2)SC1=S (stereo unspecified),active: 15.8 µM
12,O=C(O)CCc1ccc(-c2cccs2)n1NC(=O)c1ccccc1Br,"inconclusive: 56.2 µM [inhibitor, partial curve]"
13,COc1ccccc1COC(=O)C(NC(=O)c1ccc(C)cc1)C(C)C (stereo unspecified),inactive
14,CC(=O)c1ccc(NC(=O)CC2Nc3cccc4cccc(c34)NC2=O)cc1 (stereo unspecified),"inconclusive: 50.1 µM [inhibitor, single point] and inconclusive: 56.2 µM [inhibitor, partial curve]"
15,COc1ccc(NC(=O)/C(N=Nc2ccc(Cl)c(S(=O)(=O)Nc3ccc(Cl)cc3)c2)=C(\C)O)cc1,"inconclusive: 22.4 µM [inhibitor, full curve]"
16,O=C(CSc1nnc(-c2ccncc2)n1Cc1ccco1)Nc1ccccc1Cl,"inconclusive: 25.1 µM [inhibitor, partial curve]"
17,O=C(c1cc2cc(F)ccc2[nH]1)N1CCCC(Nc2ccc(F)cc2)C1 (stereo unspecified),"inconclusive: 50.1 µM [inhibitor, partial curve]"
18,COc1ccccc1C(=O)NC(=O)CSc1nnc(N)s1,"inconclusive: 56.2 µM [inhibitor, partial curve, poor fit]"
19,CCC(=O)Oc1ccc(C/C(=N\O)c2ccc(O)cc2O)o1,"inconclusive: 63.1 µM [inhibitor, partial curve, poor fit]"
20,CC(C)Cn1c(-c2csc3ccccc23)n[nH]c1=S,active: 79.4 µM
21,Cc1cccc(/C=C(\C#N)C(=O)Nc2ccccn2)c1,inactive
22,O=C(NC1CCCCCC1)C(=S)N1CCOCC1,active: 79.4 µM
23,NS(=O)(=O)c1ccc(NC(=O)CSc2ccccn2)cc1,inactive
24,COc1ccc(NS(=O)(=O)c2ccc(N3CCCC3)c(N)c2)cc1,"inconclusive: 56.2 µM [inhibitor, partial curve]"

row,Structure (SMILES),Potency
1,COc1ccc(CC(=O)N[C@@H]2c3ccccc3CC[C@H]2OCc2ccccc2)cc1,inactive
2,CCCOc1ccc(-c2nc(N3CCN(C)CC3)c3ccccc3n2)cc1,"inconclusive: 56.2 µM [inhibitor, partial curve]"
3,O=C1NNC(c2ccccc2)=N/C1=C\c1ccco1,"inconclusive: 50.1 µM [inhibitor, partial curve]"
4,Cc1ccc2c(c1)NC(=O)C(CC(=O)NCCCN1CCN(c3cc(C)ccc3C)CC1)O2 (stereo unspecified),"inconclusive: 44.7 µM [inhibitor, full curve]"
5,COc1cc(CN2CCC(C(=O)N3CCC(C)CC3)CC2)cc(Br)c1O,"inconclusive: 1.12 µM [inhibitor, full curve, poor fit]"
6,O=C(CCN1C(=O)/C(=C/c2ccccc2Cl)SC1=S)NC1=NCCS1,"inconclusive: 8.91 µM [inhibitor, full curve, poor fit]"
7,CCN(/N=C/c1ccc(N(C)C)cc1)c1nc2ccccc2[nH]1,"inconclusive: 22.4 µM [inhibitor, partial curve]"
8,COc1ccc(-c2ccc(CCC(=O)O)n2-c2ccccc2C(F)(F)F)cc1,"inconclusive: 56.2 µM [inhibitor, partial curve]"
9,Cc1cc(OCC(=O)OCC(=O)NC2CCCCC2C)ccc1Cl (stereo unspecified),inactive
10,Cc1ccc(C(=O)C[n+]2cc(Br)cc(Br)c2)cc1[N+](=O)[O-],"inconclusive: 39.8 µM [inhibitor, single point]"
11,COc1ccc(NS(=O)(=O)c2cc([N+](=O)[O-])ccc2NN=Cc2ccccc2OCC(=O)O)cc1,"inconclusive: 22.4 µM [inhibitor, full curve, poor fit]"
12,CCOc1ccc(NC(=O)CN(C)S(=O)(=O)c2ccc(-c3ccc(=O)[nH]n3)s2)cc1,"inconclusive: 25.1 µM [inhibitor, full curve]"
13,O=[N+]([O-])c1ccc2nonc2c1Nc1cccc(F)c1,"inconclusive: 11.2 µM [inhibitor, partial curve]"
14,NS(=O)(=O)c1ccc(CCNC(=O)Cc2ccc(S(=O)(=O)N3CCCC3)s2)cc1,"inconclusive: 44.7 µM [inhibitor, partial curve]"
15,O=S(=O)(c1ccc(NCCc2c[nH]c3ccccc23)nc1)N1CCOCC1,"inconclusive: 70.8 µM [inhibitor, single point]"
16,CCCSc1ncc(Cl)c(C(=O)Nc2ccc(S(=O)(=O)N3CCCCC3C)cc2)n1 (stereo unspecified),inactive
17,O=[N+]([O-])c1ccc(O)c(NC(=S)Nc2ccccc2)c1,"inconclusive: 70.8 µM [inhibitor, single point]"
18,O=C(O)C1Nc2ccccc2C2C=CCC12 (stereo unspecified),active: 3.55 µM
19,COc1ccc(Br)cc1/C=N/n1c(-c2ccccc2)n[nH]c1=S,"inconclusive: 100 µM [inhibitor, single point]"
20,COc1ccc(-c2cc(C(F)(F)F)n3ncc(C(=O)N4CCCCC4c4cccnc4)c3n2)cc1 (stereo unspecified),"inconclusive: 56.2 µM [inhibitor, partial curve]"
21,OC1(c2ccccn2)COc2ccccc2O1 (stereo unspecified),"inconclusive: 2.82 µM [inhibitor, partial curve, poor fit]"
22,O=C(COc1ccc(Br)cc1Br)NC(=S)N1CCCc2ccccc21,active: 50.1 µM
23,O=[N+]([O-])c1cc(Cl)c(O)c2ncccc12,active: 22.4 µM

# — PubChem BioAssay AID504339 (National Center for Advancing Translational Sciences (NCATS), 2011)
